# In the supplement of paper PMC10126150:
# Sequences with one replicate were seen in a single cluster, so their values are uncertain.
# Test system: ATP
# Assay: switch fluorescence ratio, 500 uM ATP over buffer (Cy3 cluster intensity, sum of 5 cycles each) (fold (ratio)); higher = stronger signal-on switching upon ATP binding; sequences stand for … in TCGTCGGCAGCGTCAGATGTGTATAAGAGACAGTTTTTTTTTTTTTTTTTTTTTTTTT…TC
# Conditions: aptamer strand: ATP DNA aptamer (quencher-CACCTGGGGGAGTATTGCGGAGGAAGG + anchor), 100 nM annealed; ATP concentration: 500 uM; one replicate
# How it was run: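 Between each of five buffer/ATP cycles, the flow-cell was stripped with NaOH and re-annealed. Each cycle imaged Cy3-labelled switching-strand clusters, annealed to 100 nM quencher-labelled ATP aptamer on a modified Illumina MiSeq flow-cell, first in selection buffer and then after 15 min with 500 uM ATP at 22 °C. The fluorescence ratio is summed target-cycle over summed buffer-cycle Cy3 intensity per cluster, averaged per switch-domain sequence, with clusters outside 100-1000 RFU excluded.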
# 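Also: ATP exposure 15 min at 22 °C before imaging.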
row,Sequence,switch fluorescence ratio
1,GGCGGACTTG,0.99
2,TGGACGACCC,1.44
3,GTATTCACT,1.06
4,AACAGATTCT,0.961
5,TAGGGATATT,1.04
6,TAAGTGTGAG,0.969
7,AGCTGAGAGT,0.972
8,ACCTGGATCG,1.31
9,ATACGCTCGC,1.17
10,ATCTGATCGT,0.978
11,AAATATCTC,0.987
12,GGTACGCCGG,1
13,AACCCCATCG,1.15
14,ATCCTTGGGA,0.96
15,TTAGTATA,0.955
16,GGGTAGTAT,0.971
17,CTAAACACAC,1.23
18,GCCTGCTACT,1.02
19,CATCCCCTCT,1.05
20,AGCTTCTTCT,1.05
21,TGGGCAGCGG,0.969
22,AATGTGCGTG,1.02
23,TTGGCAATG,1.04
24,TTGGAGTGC,1.02
25,CTTTTGTGGG,0.956
26,TGTCCGTAGC,2.53

row,Sequence,switch fluorescence ratio
1,TGGCAGCTGG,1
2,CCCTCGTCGT,1.03
3,GACGCTCTTC,1.04
4,GTTTCGACTG,1.02
5,TCCTGGGCTG,1.05
6,ACATTAGGC,1.02
7,CGGCTGGGTT,0.936
8,GAGCACCGTG,0.978
9,CATGTCAGCT,0.988
10,GAGGATGTTT,0.993
11,CCAAAAGTTT,0.99
12,CCATGACTAT,0.996
13,TTCCAGTCAC,1.05
14,CAACGCTATG,1.22
15,GGTATTGGTC,1
16,AGGTGGCAAT,1.18
17,CGCGAGTTGC,1.06
18,GTGAATCTAT,1
19,ATTGCTTAC,2.08
20,CTTATTTTCT,1.07
21,TTTGCGCGAT,1.61
22,AGTTAACACC,1.01
23,AGCCTGCTTA,0.995
24,CGGCTAGCGC,1.03
25,CTCCCTCCTT,1.12
26,GGGGAGCTAA,1.02

row,Sequence,switch fluorescence ratio
1,TGCGATAAAC,1.17
2,AGTAACAAGT,1.05
3,ACGGGGTGAC,1.01
4,TCTCGTTAAC,1.06
5,GTGAAGATAT,1.03
6,ATCTTTATAA,0.975
7,AGATGAAGGG,0.961
8,TGACTAGAGG,0.979
9,GTATTATCCC,0.997
10,CCGTTTGAGA,0.95
11,AGCAGTAAGG,1.03
12,TATACTTGAG,0.968
13,TAGAGGGCTT,1
14,ACCTCTGTTA,1.1
15,TCAGCTTAGC,1
16,GCGGAACGAT,1.03
17,TATCTGTAGC,1.03
18,GTCATTTCCA,1
19,CGGTAGTTAG,0.942
20,ATATCTTCGG,1.07
21,AAGGTTAGGA,1.03
22,GATTCTTTTG,0.971
23,GCGTTCTACA,1.01
24,CAGAGCCGAC,1.02
25,CGCAGTGGGA,1
26,TTTACGCAGG,1.06

row,Sequence,switch fluorescence ratio
1,AAACTTCATT,1.02
2,CTTGGTCCAG,0.998
3,AGGTATCCCC,1.04
4,TCCATCAGGA,1.03
5,CCGTTAGGCT,1.08
6,GATCGTGCCT,1.02
7,TAGTAACTGG,1.01
8,ACACTCGGTC,1.05
9,TACGATTGGT,1
10,GGCCGAAAG,1
11,CGCATTTAGC,1.3
12,TGTCAGCGAT,1.22
13,ATGAAAAA,0.913
14,AATTCAGTCT,0.994
15,ACTTTCGTAT,0.962
16,CAGATAGGCC,1.02
17,GTTATGCCTG,1
18,TAACTCACAT,1.24
19,ATTAGTAGCC,0.999
20,TTCAAATCTC,0.964
21,GTTACCCCTT,1.06
22,TTTCGAAAGC,1.5
23,TTCGGCGTT,1.04
24,TCCTGGAGTA,1.01
25,ATACCGTGTA,0.962
26,TGGGTTCGAC,0.947

row,Sequence,switch fluorescence ratio
1,CTAGGCGCGA,1.05
2,TATGCAAATG,1
3,TGAATTCAT,1.04
4,AAGTCAGGTA,1
5,TGTTTTG,1.02
6,CATACATGCG,1.01
7,CGTGGTCGC,0.988
8,TGAGATCAGT,1.03
9,CAATGTCCCC,1.21
10,AAAAGATCAA,0.969
11,CGTATTGGAC,1.02
12,TGGCCACGTA,0.988
13,CTTTGGTGAG,1.03
14,ATGAATGTCG,0.991
15,GGAAGGTATA,1.01
16,CAGTCTGTCG,0.97
17,ATGATTTCGC,0.997
18,AGCGTTACCG,1
19,AATAGGAGGA,1.02
20,TCGTCCCATG,1.11
21,CGGCCAACAG,1.04
22,ATAATATTGA,0.998
23,CAAGTTGTGG,0.996
24,GTCCGAGCCT,1.13
25,AAGAGGCGAA,0.981
26,CGCTTATGGG,1

row,Sequence,switch fluorescence ratio
1,TCCGGAGGGC,1.03
2,TGCCTGGGGC,1.05
3,CACGCTTTTG,1.01
4,TTAAAAGTCA,0.948
5,AAGGCGTAGC,1.02
6,TTGTTTGACT,0.99
7,GGGATCTGTG,1.02
8,GTCGGTCTGT,0.949
9,GGATGTGGGC,1.04
10,CGCGCGGGAT,0.932
11,GTAGTTAGAT,0.991
12,CGAGTCGGAA,1.02
13,GAGCTGCGTC,1.02
14,AAATAAAGAT,1.02
15,ATTTTGCGA,0.966
16,ACGATAATG,1.13
17,ACCCGGCATA,1.47
18,AATTTGCCTG,0.973
19,GCATAAAGTT,0.97
20,GTGAGGGGT,0.999
21,TGTGCGTGAA,1
22,TCTTTCATTA,1.07
23,ATGGGAAA,1.01
24,CCGGTCTGGA,0.942
25,GCACACCAAG,1.11
26,CTCAAATGCT,1.06

row,Sequence,switch fluorescence ratio
1,AGCAGCCGTG,1.02
2,AAGGTAATCA,0.96
3,TCCACAAACA,1.16
4,CGTTGAAATC,0.993
5,TTTACTTAGA,1.06
6,ACTTGTTTCA,1.01
7,CAGGTGTTTC,1.58
8,GACTTTGCGT,0.997
9,TATACTGTGT,1.01
10,TTACTCGTAC,1.27
11,TGAGGGGTGT,1.03
12,GTAGGGATA,0.962
13,CGGACCGGCG,1.01
14,TCCCTAAAAT,0.988
15,GCAGAGAGAT,0.987
16,TTTCGGCCA,0.993
17,AATCTTCTAC,1.02
18,TTTATCCCGG,1.07
19,TTACGGGGAA,1.05
20,CGTGTTAGAC,1.07
21,ACGACGTGCA,1.09
22,TCTAATGGGG,0.949
23,TCTGTTTCAC,1.04
24,CCTGATTCGT,1
25,GATGGCACTT,0.996
26,CCCTTCAGGA,1.02

row,Sequence,switch fluorescence ratio
1,ATAACGGGGT,1.03
2,CTAGCGGGCG,1.01
3,CGGTCCGTAT,0.952
4,CCATAAAACT,1.03
5,ACGGAGTT,0.991
6,AGAGACGGAT,1.01
7,GCTCGGTGTG,1.02
8,TTTTCTAATA,0.951
9,ATTTCTCCG,1.81
10,AAATCTGCAA,4.25
11,TGACGGGCCT,1.02
12,TGAGTCGTAT,0.958
13,TAACGGTTAA,1.01
14,ATTCCGGTCG,1.04
15,GAATTATGTC,1.03
16,GTTGATGTAC,1.06
17,GCTGTGGCGG,0.977
18,AGTGTAACTT,1.03
19,ATTGAGTGGA,1.06
